Reference: the supplement of paper PMC4967469

Columns and labels:
Test in all cases: Viability of human cancer cell lines after 72 h of drug (GDSC screen)
SGC0946 = compound: CC(C)N(CCCNC(=O)Nc1ccc(C(C)(C)C)cc1)C[C@H]1O[C@@H](n2cc(Br)c3c(N)ncnc32)[C@H](O)[C@@H]1O [SGC0946]; settings: top dose 0.5 µM; top dose inferred
Experimental: (§1)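 Human cancer cell lines in 384-well plates, medium with 10% serum, drug for 72 h over a 256-fold dose range (nine 2-fold or five 4-fold steps up to the top dose). Adherent lines were fixed and stained with the nucleic acid dye Syto60, suspension lines read with resazurin; signal relative to control wells, capped at 0 and 100%. One two-parameter sigmoid per drug and line, fitted in a mixed model over all curves with the slope shared within a line.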

Lenalidomide = compound: Nc1cccc2c1CN(C1CCC(=O)NC1=O)C2=O [Lenalidomide]; settings: top dose 5 µM; top dose inferred
Experimental: as §1

Bryostatin 1 = compound: CCC/C=C/C=C/C(=O)O[C@H]1/C(=C/C(=O)OC)C[C@H]2C[C@H]([C@@H](C)O)OC(=O)C[C@H](O)C[C@@H]3C[C@H](OC(C)=O)C(C)(C)[C@](O)(C[C@@H]4C/C(=C/C(=O)OC)C[C@H](/C=C/C(C)(C)[C@]1(O)O2)O4)O3 [Bryostatin 1]; settings: top dose 0.008 µM; top dose inferred
Experimental: as §1

GW-2580 = compound: COc1ccc(COc2ccc(Cc3cnc(N)nc3N)cc2OC)cc1 [GW-2580]; settings: top dose 20 µM; top dose inferred
Experimental: as §1

Row | Cell Line | AUC (SGC0946) | IC50 (SGC0946) | AUC (Lenalidomide) | IC50 (Lenalidomide) | AUC (Bryostatin 1) | IC50 (Bryostatin 1) | AUC (GW-2580) | IC50 (GW-2580)
1 | NMC-G1 (glioma, adherent) | 0.979 | > 500 nM | 0.973 | > 5 µM | 0.926 | > 8 nM | 0.976 | > 20 µM
2 | NOS-1 (osteosarcoma, adherent) | 0.977 | > 500 nM | 0.948 | > 5 µM | 0.965 | > 8 nM | 0.96 | > 20 µM
3 | NU-DUL-1 (B-cell lymphoma, suspension) | 0.992 | > 500 nM | 0.993 | > 5 µM | 0.814 | 3.32 nM | 0.983 | > 20 µM
4 | NUGC-4 (stomach, adherent) | 0.978 | > 500 nM | 0.98 | > 5 µM | 0.984 | > 8 nM | 0.945 | > 20 µM
5 | NY (osteosarcoma, adherent) | 0.987 | > 500 nM | 0.988 | > 5 µM | 0.975 | > 8 nM | 0.961 | > 20 µM
6 | OAW-42 (ovary, adherent) | 0.984 | > 500 nM | 0.986 | > 5 µM | 0.982 | > 8 nM | 0.967 | > 20 µM
7 | OCI-AML2 (acute myeloid leukaemia, suspension) | 0.995 | > 500 nM | 0.989 | > 5 µM | 0.992 | > 8 nM | 0.992 | > 20 µM
8 | OCI-AML3 (acute myeloid leukaemia, suspension) | 0.99 | > 500 nM | 0.961 | > 5 µM | 0.982 | > 8 nM | 0.975 | > 20 µM
9 | OCI-AML5 (acute myeloid leukaemia, suspension) | 0.984 | > 500 nM | 0.986 | > 5 µM | 0.945 | > 8 nM | 0.912 | > 20 µM
10 | OCUM-1 (stomach, adherent) | 0.978 | > 500 nM | 0.987 | > 5 µM | 0.926 | > 8 nM | 0.98 | > 20 µM
11 | OE19 (oesophagus, adherent) | 0.985 | > 500 nM | 0.978 | > 5 µM | 0.984 | > 8 nM | 0.985 | > 20 µM
12 | OE21 (oesophagus, adherent) | 0.969 | > 500 nM | 0.944 | > 5 µM | 0.911 | > 8 nM | 0.978 | > 20 µM
13 | OE33 (oesophagus, adherent) | 0.981 | > 500 nM | 0.91 | > 5 µM | 0.977 | > 8 nM | 0.976 | > 20 µM
14 | ONS-76 (medulloblastoma, adherent) | 0.983 | > 500 nM | 0.95 | > 5 µM | 0.964 | > 8 nM | 0.984 | > 20 µM
15 | OSC-20 (head and neck, adherent) | 0.957 | > 500 nM | 0.963 | > 5 µM | 0.982 | > 8 nM | 0.974 | > 20 µM
16 | OV-90 (ovary, adherent) | 0.971 | > 500 nM | 0.976 | > 5 µM | 0.915 | > 8 nM | 0.971 | > 20 µM
17 | OVCAR-5 (ovary, adherent) | 0.98 | > 500 nM | 0.982 | > 5 µM | 0.98 | > 8 nM | 0.982 | > 20 µM
18 | OVCAR-8 (ovary, adherent) | 0.983 | > 500 nM | 0.973 | > 5 µM | 0.988 | > 8 nM | 0.989 | > 20 µM
19 | OVISE (ovary, adherent) | 0.978 | > 500 nM | 0.964 | > 5 µM | 0.978 | > 8 nM | 0.981 | > 20 µM
20 | OVKATE (ovary, adherent) | 0.975 | > 500 nM | 0.979 | > 5 µM | 0.97 | > 8 nM | 0.979 | > 20 µM
21 | OVMIU (ovary, adherent) | 0.978 | > 500 nM | 0.981 | > 5 µM | 0.972 | > 8 nM | 0.974 | > 20 µM
22 | OVTOKO (ovary, adherent) | 0.975 | > 500 nM | 0.968 | > 5 µM | 0.967 | > 8 nM | 0.98 | > 20 µM
23 | P12-ICHIKAWA (T-cell lymphoblastic leukaemia, suspension) | 0.994 | > 500 nM | 0.989 | > 5 µM | 0.992 | > 8 nM | 0.99 | > 20 µM
24 | P30-OHK (lymphoblastic leukaemia, suspension) | 0.98 | > 500 nM | 0.945 | > 5 µM | 0.874 | 5.61 nM | 0.99 | > 20 µM
25 | P31-FUJ (acute myeloid leukaemia, suspension) | 0.996 | > 500 nM | 0.99 | > 5 µM | 0.996 | > 8 nM | 0.994 | > 20 µM
26 | PA-TU-8902 (pancreas, adherent) | 0.981 | > 500 nM | 0.983 | > 5 µM | 0.964 | > 8 nM | 0.98 | > 20 µM
27 | PA-TU-8988T (pancreas, adherent) | 0.986 | > 500 nM | 0.977 | > 5 µM | 0.97 | > 8 nM | 0.973 | > 20 µM
28 | PANC-02-03 (pancreas, adherent) | 0.981 | > 500 nM | 0.968 | > 5 µM | 0.972 | > 8 nM | 0.983 | > 20 µM
29 | PANC-03-27 (pancreas, adherent) | 0.987 | > 500 nM | 0.988 | > 5 µM | 0.979 | > 8 nM | 0.964 | > 20 µM

IC50 is the fitted dose that halves viability relative to control wells, and lower means more sensitive; fits outside the tested doses are given as limits. AUC, from the same fit, is the share of area under the viability curve across the 256-fold dose range; values near 1 show little effect. The top dose, if marked as inferred, was calculated from the reported fits.
